Source: the supplement of paper PMC4723716
In all, about 3,600 compounds were measured (“viability index relative to DMSO control”: median about 0.81, lowest 2% from about 0.13 on). The list shows a part of the results.

System: Plasmodium falciparum NF54 stage V gametocytes
Test: viability index relative to DMSO control (fraction); higher = less gametocyte killing
Conditions: 1.25 µM, incubation time: 72 h
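Further: 384-well serum-free SaLSSA: MitoTracker Red CMXRos staining with saponin lysis, high-content imaging, treated-well particle count divided by plate-mean count of DMSO wells.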

Structure (SMILES)	viability index
Cc1ccc(NC2=C(N3CCCCC3)C(=O)c3ccccc3C2=O)cc1	0.735
CCOC(=O)C1=C(C)NC2=C(C(=O)C(C(=O)OCC)C(c3cccc(OC)c3)C2)C1c1ccc(OC)c(OC)c1 (stereo not given)	0.425
CCCOc1ccc(C(=O)Nc2cccc(-c3nc4ncccc4o3)c2)cc1	0.984
CC(C)c1ccc2c(c1)c1c3c([n+](C)ccn32)CCC1	1.22
CCOc1ccc(C2c3[nH]c4ccccc4c3CCN2C(=O)c2cc3cc(Br)ccc3o2)cc1 (stereo not given)	0.672
O=C(Cc1cccs1)N1CCOc2c(cc(-c3csc4ccccc34)cc2OCCc2ccccn2)C1	0.346
CCCc1nc2ccc(NC(=O)NCC)cc2c(=O)n1Cc1ccc(-c2ccccc2)cc1	0.595
O=C1CC(c2ccc(O)cc2)C2=C(CC(c3ccccc3Cl)CC2=O)N1 (stereo not given)	0.659
COc1ccc(C(NC(=O)COc2ccccc2)c2cc(Cl)c3cccnc3c2O)cc1OC (stereo not given)	0.742
CCOC(=O)CCCSc1nc(-c2cccs2)cc(C(F)(F)F)c1C#N	0.71
O=C1C(Nc2ccc(O)cc2)=CC(=NS(=O)(=O)c2cccs2)c2ccccc21	0.306
COc1cc(NC(=O)Cn2ccc3ccc([N+](=O)[O-])cc32)cc(OC)c1OC	0.73
CN(C)c1ccc(C=CC(=O)NC(=O)c2ccccc2O)cc1	0.642
Cc1ccc(C(CCNc2ncnc3c2[nH]c2ccccc23)c2ccco2)cc1 (stereo not given)	0.561
CC1(C)O[C@@H]2OC([C@@H](O)CNc3ccc([N+](=O)[O-])cc3[N+](=O)[O-])C(O)[C@@H]2O1 (stereo not given in full)	0.61
CC(=O)N1c2ccccc2NC2=C(C(=O)CCC2)C1c1ccc([N+](=O)[O-])cc1 (stereo not given)	0.883
O=C(c1cc2n(n1)C(C(F)(F)F)CC(c1ccc3c(c1)OCO3)N2)N1CCN(C(c2ccccc2)c2ccccc2)CC1 (stereo not given)	0.682
CCOC(=O)c1[nH]c2ccc(C)cc2c1N=NN(C)C	0.57
O[Si](CCCN1CCCCC1)(c1ccccc1)C1CCCCC1 (stereo not given)	0.371
c1ccc2cc3c(N4CCN(CCN5CCN(c6ccnc7cc8ccccc8cc67)CC5)CC4)ccnc3cc2c1	0.663
Cc1cccc(NC(=O)c2sc3nc4c(c(-c5cccs5)c3c2N)CCCCC4)c1	1.01
Clc1ccc2c(N3CCC(n4cccc4)CC3)ccnc2c1	0.556
OC1=C2C(=Nc3ccccc3SC2c2ccccc2)c2ccccc21 (stereo not given)	0.667
Cc1ccccc1S(=O)Cc1ccc(C(=O)N2CCN(c3ccccn3)CC2)o1 (stereo not given)	0.744
CCCCCCCC[n+]1c(C)n(CC)c2ccc(Cl)cc21	0.772
c1ccc(-c2nc3cc4ccccc4cc3nc2-c2ccsc2)cc1	0.834
COC(=O)CNC(=O)c1sc2ncn(CC(=O)Nc3ccccc3OC)c(=O)c2c1C	0.805
Oc1nnc(SCc2nc3ccccc3s2)n1Cc1ccco1	0.954

Structure (SMILES)	viability index
COc1ccc(-n2c(S)nnc2CNc2cccc(C(F)(F)F)c2)cc1	0.767
CCCOC(=O)C1=C(C)NC2=C(C(=O)CC(c3ccc(OC)c(OC)c3)C2)C1c1ccccc1C (stereo not given)	0.301
O=[N+]([O-])c1ccc(N2CCN(C(=S)Nc3ccccc3)CC2)cc1	0.967
O=C1NC(=Nc2ccccc2)SC1=Cc1ccc(F)c(Br)c1	0.706
COc1ccc(-c2nc(NC(=O)CS(=O)(=O)c3ccccc3)sc2C)cc1	1.02
O=C1C(=Cc2ccccc2)Oc2c1ccc(O)c2CN1CCCCC1	1.17
CC(NC(=O)C(=O)N1CCCCC1)C(c1cccs1)N1CCOCC1 (stereo not given)	0.787
Fc1ccc(N2CCN(c3ncnc4c3cnn4-c3ccccc3)CC2)cc1	1.07
Cc1ccc(Cl)cc1N1C(=O)[C@@H]2[C@H](C1=O)C1c3ccccc3C=CN1[C@@H]2C(=O)c1cccs1 (stereo not given in full)	0.87
CCC(C)NCC(O)(c1ccc(Cl)cc1)c1ccc(Cl)cc1 (stereo not given)	0.699
O=C1C2C3c4ccccc4C(c4ccccc43)C2C(=O)N1CCO (stereo not given)	0.585
OC(Cn1cnc(-c2ccccc2)c1-c1ccccc1)Cn1c2ccc(Cl)cc2c2cc(Cl)ccc21 (stereo not given)	0.534
O=C(Nc1ccc(-c2nc3ccccc3[nH]2)cc1)c1ccccc1Oc1ccccc1	0.521
COc1ccc(-c2csc(Nc3cccc(Cl)c3C)n2)cc1OC	0.776
c1ccc(-c2nc(-c3ccc4cccnc4c3)n(-n3c(-c4ccc5cccnc5c4)nc(-c4ccccc4)c3-c3ccccc3)c2-c2ccccc2)cc1	0.601
Cc1ccc(NC(=O)C2C3C=CC4(O3)C2C(=O)N(CCCN2CCOCC2)C4C(=O)NC2CCCC(C)C2C)cc1Cl (stereo not given)	0.888
FC(F)(F)c1cccc(Nc2nc3nonc3nc2Nc2ccc(Br)cc2)c1	0.479
CC(C)NC(=O)c1ccc(OC2CCN(CC3CCCCC3)CC2)c(Cl)c1	0.75
OC(CN1CCN(CC=Cc2ccccc2)CC1)Cn1c2ccc(Br)cc2c2cc(Br)ccc21 (stereo not given)	0.559
Cc1cccn2c(=O)c3cc(C(=O)NCc4ccco4)c(=N)n(CCc4ccccc4)c3nc12	1.12
COc1cccc(-c2nc(CS(=O)(=O)CC(=O)N3CC(C)CC(C)C3)c(C)o2)c1 (stereo not given)	0.859
CCN1C(=Cc2cccc[n+]2C)Sc2ccccc21	1.22
N#Cc1ccc(NC(=O)CCCC(=O)O)cc1	1.04
COC(=O)C1=CN(Cc2ccc(Cl)cc2)C=C(C(=O)OC)C1c1ccc(Cl)c(Cl)c1	0.888
CCCSc1nc(N)c2c3c(sc2n1)CN(CCC)CC3	0.78
CC(C)c1ccc(C=C2SC(=Nc3ccccc3)NC2=O)cc1	0.532
COc1ccc(C(=O)NC(c2ccccc2Cl)c2cc(Cl)c3cccnc3c2O)cc1 (stereo not given)	0.913
